# Measured values taken from PubChem BioAssay AID686978 (National Center for Advancing Translational Sciences (NCATS), 2013).
# About 64,000 (15%) of roughly 420,000 compounds were called active. Inconclusive results, whose numbers are uncertain, are shown with a selection of clear calls. The call rests on the fitted dose curve; in most records, active means well fitted inhibition curve with a large enough effect; inconclusive means small, poorly fitted or top-dose-only effect; inactive means flat fitted curve, though single readings scatter. Potencies of inconclusive entries are left out as doubtful fits.
# Assay: qHTS for Inhibitors of human tyrosyl-DNA phosphodiesterase 1 (TDP1): qHTS in cells in absence of CPT; further: nearly all actives have a fitted effect of over 55% in size
# Details: DT40 Tdp1-/- hTDP1 cells, no CPT, ATP luminescence, 48 h; series mostly up to 46.2 µM
# Summary of the method: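 DT40 Tdp1-/-;hTDP1 cells, no CPT (DMSO vehicle only), 400 cells/well; compounds pin-transferred; ≥48 hr, 37 °C; CellTiter-Glo 30 min RT dark, luminescence read.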
# Potency means the concentration at half of the fitted maximal effect; tags describe the fitted curve by direction and shape.
row,Compound,Potency
1,Cc1ccc(-n2ncc3c(NCC4CCCO4)ncnc32)c(C)c1 (stereo unspecified),"inconclusive [inhibitor, partial curve, poor fit]"
2,CCCOc1ccc(CCCN=C(N)N)cc1Cl,active: 2.06 µM
3,CC(C)(C)OC(=O)N1CCN(C(=O)c2[nH]cnc2C(=O)N[C@@H](Cc2ccccc2)C(=O)OCc2ccccc2)CC1,"inconclusive [inhibitor, single point]"
4,CCn1c(CN2CCN(c3ccc(Cl)cc3)CC2)nc2ccccc21,"inconclusive [inhibitor, single point]"
5,Cc1c(-c2ccccc2)c(=O)oc2ccc(OC(=O)N3CCOCC3)cc12,"inconclusive [inhibitor, partial curve]"
6,O=C(COc1ccc(Cl)cc1Cl)NCc1ccco1,inactive
7,Nc1ccc(S(=O)(=O)Nc2nc(-c3ccccc3)cc(-c3ccccc3O)n2)cc1,inactive
8,COc1ccc(CCN2C(=O)CSC2=Nc2ccc(C(C)C)cc2)cc1OC,active: 9.2 µM
9,COC(=O)[C@]12CCCCC=C1N(Cc1ccccc1)C(=O)[C@H](CC(=O)NCCCCc1ccccc1)C2,"inconclusive [inhibitor, single point]"
10,CCOc1ccc(C(=O)Nc2c(C(=O)Nc3ccccc3OC)oc3ccccc23)cc1OCC,"inconclusive [inhibitor, single point]"
11,COc1ccc(CNC(=S)N/N=C/c2ccc(OC)c(OC)c2)cc1,inactive
12,CCN(c1ccccc1)S(=O)(=O)c1ccc(Cl)c(C(=O)NCC2CCCO2)c1 (stereo unspecified),"inconclusive [inhibitor, single point]"
13,O=C(O)c1ccc(S(=O)(=O)c2ccc3c(c2)C(=O)N(c2ccc(Br)cc2)C3=O)cc1,inactive
14,Nc1nc2[nH]c(=O)[nH]c2c(=O)[nH]1,inactive
15,Cc1cccc(-c2cc3c(N=O)c4ccccc4c-3n[nH]2)c1,"inconclusive [inhibitor, single point]"
16,Cc1ccc2c(CC(=O)Nc3ccc4nc(N5CCOCC5)sc4c3)coc2c1,"inconclusive [inhibitor, single point]"
17,CC[C@@]12C(=O)N(c3cccc(F)c3)C(=O)N1[C@H](c1ccc(F)cc1)[C@@H]1C(=O)N(C3CCCCC3)C(=O)[C@@H]12,"inconclusive [inhibitor, single point]"
18,COc1ccccc1CN1CC2(CCN(S(=O)(=O)c3ccccc3)CC2)C1,"inconclusive [inhibitor, single point]"
19,Clc1ccc(N(CC2CO2)CC2CO2)cc1 (stereo unspecified),active: 0.651 µM
20,COc1ccc(NC(=O)CN2C(=O)NC(C)(c3ccccc3)C2=O)c(OC)c1 (stereo unspecified),inactive
21,CC(=O)N1c2ccc(S(=O)(=O)N3CCC(C(=O)N4CCC(C)CC4)CC3)cc2CC1C (stereo unspecified),"inconclusive [inhibitor, partial curve]"
22,COc1ccc(NS(=O)(=O)c2ccc(OC)c(NC(=O)CCC3CCCC3)c2)cc1,"inconclusive [inhibitor, partial curve]"
23,CCn1cc(CN2CCc3c([nH]c4ccccc34)C2c2cccc(OC)c2OC)c(C)n1 (stereo unspecified),inactive
24,C/C=C(/C(=C/C)c1ccc(O)cc1)c1ccc(O)cc1,"inconclusive [inhibitor, single point]"
25,O=C(CCNS(=O)(=O)c1ccccc1C(F)(F)F)NCCCN1CCOCC1,inactive
26,CC(C)c1nc(NCCO)c2nnn(Cc3ccccc3)c2n1,inactive

row,Compound,Potency
1,Cc1ccc(S(=O)(=O)N2CCCC2C(=O)NCCc2ccccc2)cc1 (stereo unspecified),active: 14.6 µM
2,[O-]/C(=C(\C(=S)Nc1cccc2ccccc12)[n+]1ccccc1)c1ccc(OC(F)F)cc1,active: 20.6 µM
3,COCCCNC(=O)c1cc(-c2cccnc2)nc2ccc(S(=O)(=O)N3CCCCCC3)cc12,inactive
4,CCOC(=O)C(CC)(CC)C(=O)/C=C/c1ccc(OC)cc1,active: 18.4 µM
5,O=C(Cn1cc(C(=O)C2CCCCC2)c2ccccc21)Nc1ccccc1Cl,"inconclusive [inhibitor, single point]"
6,COc1cccc(C2C3=C(CC(C)(C)CC3=O)Nc3cc(OC)c(OC)cc32)c1 (stereo unspecified),inactive
7,CC1CCC/C(=C\Nc2ccc(O)cc2)C1=O (stereo unspecified),"inconclusive [inhibitor, single point]"
8,O=C1CCCC(O)=C1N=Nc1ccc(S(=O)(=O)N2CCOCC2)cc1,inactive
9,COc1cc(-c2cc(OC)c3c(C)oc(C)c3c(=O)c2)ccc1OC(=O)c1ccc(C)cc1,active: 5.8 µM
10,CCOc1ccc(NC(=O)CSC2=Nc3ccccc3C3=NC(CC(=O)NCc4cccs4)C(=O)N23)cc1 (stereo unspecified),"inconclusive [inhibitor, single point]"
11,CC(C(=O)N(C)C1CCS(=O)(=O)C1)N1C(=O)/C(=C/c2ccc(F)cc2)SC1=S (stereo unspecified),"inconclusive [inhibitor, single point]"
12,Cc1cccc(N(C(=O)c2snc(C(N)=O)c2N)C(C(=O)NCC2CCCO2)c2cccs2)c1 (stereo unspecified),active: 0.411 µM
13,COc1ccc(/C=C/C(=O)OCC(=O)c2c(C)[nH]c3ccccc23)cc1OC,inactive
14,O=C(CSc1n[nH]c(-c2ccccc2Cl)n1)NCCCc1ccccc1,"inconclusive [inhibitor, partial curve]"
15,CCc1nc2ccc(C(=O)N3CCN(C(C)=O)CC3)cn2c1N(CC)C(=O)NCCc1ccccc1,inactive
16,Oc1ccc(/C=N/N(c2ccccc2)c2ccccc2)cc1O,"inconclusive [inhibitor, single point]"
17,COc1ccc(/C=N/NC(=O)c2ccc3c(c2)OCO3)cc1,inactive
18,Cc1nc(N(C)C2CCCCC2)c2nnn(Cc3ccc(F)cc3)c2n1,"inconclusive [inhibitor, single point]"
19,Fc1ccc(/C=C2\CCCC3=C2Nc2ncnn2C3c2ccc(F)cc2)cc1 (stereo unspecified),active: 18.4 µM
20,CCNc1nc(SC)nc(N(C#N)CC(=O)OC)n1,inactive
21,CCCCOc1ccc(/C(N)=N/O)cc1,inactive
22,COc1ccccc1C(=O)NCCSCc1c(F)cccc1Cl,"inconclusive [inhibitor, single point]"
23,COc1ccc(C(C(=O)NC2CCCCC2)N(C(=O)CCl)c2ccc(C)cc2)cc1 (stereo unspecified),active: 1.64 µM
24,CCOC(=O)c1ccc(CSc2nncn2N)o1,inactive
25,CCCCNC(=O)c1cc2cccc([N+](=O)[O-])c2[nH]1,"inconclusive [inhibitor, partial curve, poor fit]"
26,CCCN(CCC)C(=O)c1cc2c(=O)n3cccc(C)c3nc2s1,active: 18.4 µM

row,Compound,Potency
1,Cc1nc(Cl)sc1C(=O)Nc1cccc(C(F)(F)F)c1,inactive
2,CC1CCCC(NC(=O)COC(=O)c2ccc3ncsc3c2)C1C (stereo unspecified),inactive
3,CCc1ccc2oc(C(=O)N(Cc3ccc(N(C)C)cc3)Cc3ccco3)c(C)c2c1,active: 16.4 µM
4,C/C(=N\Nc1ccc(S(=O)(=O)N2CCOCC2)cc1[N+](=O)[O-])C(C)C,"inconclusive [inhibitor, single point]"
5,COC(=O)C(C(=O)OC)C(C[N+](=O)[O-])c1ccc(OC)c(OC)c1 (stereo unspecified),"inconclusive [inhibitor, single point]"
6,CC(C)c1ccc(NS(=O)(=O)c2ccc(-n3cccn3)cc2)cc1,"inconclusive [inhibitor, single point]"
7,Cc1ccc(-c2cn3c(n2)sc2cc(C(=O)NCCCN4CCCCCC4)ccc23)cc1,active: 1.64 µM
8,CCOC(=O)C1(Cc2cccc(Cl)c2)CCCN(C(=O)CCSC)C1 (stereo unspecified),"inconclusive [inhibitor, single point]"
9,COc1ccccc1-n1c(=S)sc2c(=O)n(Cc3ccco3)c(SC)nc21,inactive
10,CCCS(=O)(=O)N1CCC(C(=O)NCCc2ccc(OC)c(OC)c2)CC1,inactive
11,COc1cc2cc(CCCOC(=O)c3ccc(C#N)cc3)oc(=O)c2cc1OC,inactive
12,CC1=NN(C(N)=S)C(=O)C1N=Nc1cccc([N+](=O)[O-])c1 (stereo unspecified),inactive
13,O=C(O)c1nn(CCSc2ccccc2F)c(=O)c2ccccc12,"inconclusive [inhibitor, partial curve]"
14,O=C(c1cccc(F)c1)N1CCN(C(=O)c2cc3nc(-c4ccco4)cc(C(F)(F)F)n3n2)CC1,active: 14.6 µM
15,O=C(O)c1ccccc1OP(=O)(O)O,inactive
16,Cc1cc(C(=O)OCC(=O)Nc2ccccc2Br)c(C)o1,inactive
17,O=S(=O)(c1ccccc1)N1CCC2(CC1)CN(c1ncccn1)C2,inactive
18,Cc1ccc(C)c(S(=O)(=O)c2c(N)n(/N=C/c3ccco3)c3nc4ccccc4nc23)c1,"inconclusive [inhibitor, single point]"
19,Cc1cc(C)c2nc(C)cc(Nc3ccc(C(=O)N(C)C)cc3)c2c1,inactive
20,CC(C)NC(=O)C(=O)NCCN1CCN(C(=O)c2ccc(C(C)(C)C)cc2)CC1,"inconclusive [inhibitor, partial curve]"
21,Fc1ccccc1/C=N/NC(=S)Nc1ccc(Cl)cc1Cl,active: 1.84 µM
22,COc1ccc([C@H]2CC(=O)C=C(c3cccc(OC)c3)C2)cc1,"inconclusive [inhibitor, single point]"
23,O=C(NC1CCCCC1)C(c1ccncc1)N(Cc1ccccc1)C(=O)c1ccc(-c2ccccc2)[nH]1 (stereo unspecified),"inconclusive [inhibitor, single point]"
24,CC(=O)c1cccc(NC(=O)C2CCN(c3ncnc4c3nc3n4CCCCC3)CC2)c1,"inconclusive [inhibitor, single point]"
